Measured values reported in US20140287471A1, “VARIANT CBH I POLYPEPTIDES WITH REDUCED PRODUCT INHIBITION” (BP CORPORATION NORTN AMERICA INC., priority 2011, published 2014).
“Also recorded” adds a separate entry of the source.

Columns and labels:
Assay type in all cases: biochemical
[1] = 4-MUL assay with and without cellobiose (Example 1); details: for product tolerance in library screening (4-MUL): 60-member BD29555 library, presence and absence of 250 mg/L (730 mM) cellobiose, gluconolactone
Experimental: This assay measures the activity of CBH I on the fluorogenic substrate 4-MUL (also known as MUL). Assays were run in a costar 96-well black bottom plate, where reactions were initiated by the addition of 4-MUL to enzyme in buffer (2 mM 4-MUL in 200 mM MES pH 6). Enzymatic rates were monitored by fluorescent readouts over five minutes on a SPECTRAMAX™ plate reader (ex/em 365/450 nm). Data in the linear range was used to calculate initial rates (Vo).
(§1) Tolerance to cellobiose (or inhibition caused by cellobiose) was tested in two ways in the CBH I assays. A direct-dose tolerance method can be applied to all of the CBH I assays (i.e., 4-MUL, PASC, and/or bagasse assays), and entails the exogenous addition of a known amount of cellobiose into assay mixtures. A different indirect method entails the addition of an excess amount of β-glucosidase (BG) to PASC and bagasse assays (typically, 1 mg β-glucosidase/g solids loaded). BG will enzymatically hydrolyze the cellobiose generated during these assays; therefore, CBH I activity in the presence of BG can be taken as a measure of activity in the absence of cellobiose. Furthermore, when activity in the presence and absence of BG are similar, this indicates tolerance to cellobiose.
The wild type CBH I polypeptide BD29555 was mutagenized to identify variants with improved product tolerance. A small (60-member) library of BD29555 variants was designed to identify variant CBH I polypeptides with reduced product inhibition. This product-release-site library was designed based on residues directly interacting with the cellobiose product in an attempt to identify variants with weakened interactions with cellobiose from which the product would be released more readily than the wild type enzyme. The 60-member evolution library contained wild-type residues and mutations at positions R273, W405, and R422 of BD29555 (SEQ ID NO:1), and included the following substitutions: R273 (WT), R273Q, R273K, R273A, W405 (WT), W405Q, W405H, R422 (WT), R422Q, R422K, R422L, and R422E (4 variants at position 273×3 variants at position 405×5 variants at position 422 equals 60 variants in total). All members of the library were screened using the 4-MUL assay in the presence and absence of 250 mg/L cellobiose and using gluconolactone to inhibit any BG activity. […] Due to low expression, other variants were not tested further.
Cellobiose dose response curves of the wild-type and R273K/R422K variant of BD29555 were obtained during the 4-MUL assay. Enzyme rates (Vo) were measured in the presence of different concentrations of cellobiose (200 mM MES pH 6, 25° C.). Rates were measured in quadruplicate.

[2] = Saccharification assay (bagasse assay) with and without β-glucosidase (Example 1)
Experimental: This assay measures the activity of CBH I on bagasse, a lignocellulosic substrate. Reactions were run in 10 ml vials with 5% dilute acid pretreated bagasse (250 mg solids per 5 ml reaction). Each reaction contained 4 mg CBH I enzyme/g solids, 200 mM MES pH 6, kanamycin, and chloramphenicol. Reactions were incubated at 35° C. in hybridization incubators (Robbins Scientific), rotating at 20 RPM. Time points were taken by transferring a sample of homogenous slurry (150 μl) into a 96-well deep well plate and quenching the reaction with stop buffer (450 μl of 500 mM sodium carbonate, pH 10). Time point measurements were taken every 24 hours for 72 hours.
as §1

[3] = 4-MUL assay with and without cellobiose (Example 1)
[4] = PASC assay, cellobiose dose-response (Example 1); details: FIG. 3
Experimental: This assay measures the activity of CBH I using PASC as the substrate. During the assay, the concentration of PASC is monitored by a fluorescent signal derived from calcofluor binding to PASC (ex/em 365/440 nm). The assay is initiated by mixing enzyme (15 μl) and reaction buffer (85 μl of 0.2% PASC, 200 mM MES, pH 6), and then incubating at 35° C. while shaking at 225 RPM. After 2 hours, one reaction volume of calcofluor stop solution (100 μg/ml in 500 mM glycine pH 10) is added and fluorescence read-outs obtained (ex/em 365/440 nm).
as §1

[5] = BD29555 and variants, [(activity without BG)/(activity with BG)]*100, percent conversion of glucan after 72 hours
[6] = BD29555 and variants, [(activity with cellobiose)/(activity without cellobiose)]*100, 250 mg/L cellobiose

B1: R273A: BD29555 (SEQ ID NO:1) library variant with substitution R273A (protein)
chain: MSALNSFNMYKSALILGSLLATAGAQQIGTYTAETHPSLSWSTCKSGGSCTTNSGAITLDANWRWVHGVNTSTNCYTGNTWNTAICDTDASCAQDCALDGADYSGTYGITTSGNSLRLNFVTGSNVGSRTYLMADNTHYQIFDLLNQEFTFTVDVSHLPCGLNGALYFVTMDADGGVSKYPNNKAGAQYGVGYCDSQCPRDLKFIAGQANVEGWTPSSNNANTGLGNHGACCAELDIWEANSISEALTPHPCDTPGLSVCTTDACGGTYSSDAYAGTCDPDGCDFNPYRLGVTDFYGSGKTVDTTKPITVVTQFVTDDGTSTGTLSEIRRYYVQNGVVIPQPSSKISGVSGNVINSDFCDAEISTFGETASFSKHGGLAKMGAGMEAGMVLVMSLWDDYSVNMLWLDSTYPTNATGTPGAARGSCPTTSGDPKTVESQSGSSYVTFSDIRVGPFNSTFSGGSSTGGSSTTTASGTTTTKASSTSTSSTSTGTGVAAHWGQCGGQGWTGPTTCASGTTCTVVNPYYSQCL
modifications: Obtained from an Environmental Sample
In the case of B1, the “product tolerance in library screening (4-MUL)” value (shortened to “product tolerance”) [1] is reported as “enhanced product tolerance”.

B2: R273K/R422K: BD29555 with the substitutions R273K/R422K (correspond to R268K/R411K of T. reesei CBH I) (protein)
chain: MSALNSFNMYKSALILGSLLATAGAQQIGTYTAETHPSLSWSTCKSGGSCTTNSGAITLDANWRWVHGVNTSTNCYTGNTWNTAICDTDASCAQDCALDGADYSGTYGITTSGNSLRLNFVTGSNVGSRTYLMADNTHYQIFDLLNQEFTFTVDVSHLPCGLNGALYFVTMDADGGVSKYPNNKAGAQYGVGYCDSQCPRDLKFIAGQANVEGWTPSSNNANTGLGNHGACCAELDIWEANSISEALTPHPCDTPGLSVCTTDACGGTYSSDKYAGTCDPDGCDFNPYRLGVTDFYGSGKTVDTTKPITVVTQFVTDDGTSTGTLSEIRRYYVQNGVVIPQPSSKISGVSGNVINSDFCDAEISTFGETASFSKHGGLAKMGAGMEAGMVLVMSLWDDYSVNMLWLDSTYPTNATGTPGAAKGSCPTTSGDPKTVESQSGSSYVTFSDIRVGPFNSTFSGGSSTGGSSTTTASGTTTTKASSTSTSSTSTGTGVAAHWGQCGGQGWTGPTTCASGTTCTVVNPYYSQCL
modifications: Obtained from an Environmental Sample
With B2 the “Tolerance to cellobiose accumulation % Activity in Bagasse Assay (+/−BG)” value [2, 5] was 84%, the “sensitivity to cellobiose in bagasse assay (absence vs. presence of BG)” value ([2]; compared with wild type) was “less sensitive to the presence of cellobiose than the wild type” and the “Tolerance to 250 mg/L cellobiose % Activity in 4-MUL Assay (+/−Cellobiose)” value [3, 6] was 95%. For the same molecule, the “tolerance to cellobiose in dose-response (4-MUL assay)” value ([1]; 200 mM MES pH 6, 25° C., FIG. 1B) was “tolerant to cellobiose up to 250 mg/L”, the “product tolerance” value [1] was “enhanced product tolerance; also recorded: greatest activity, expression, and cellobiose tolerance” and the “inhibition by cellobiose (PASC assay)” value ([4]; 10 g/L cellobiose) was “little inhibition”.

B3: R273Q: BD29555 (SEQ ID NO:1) library variant with substitution R273Q (protein)
chain: MSALNSFNMYKSALILGSLLATAGAQQIGTYTAETHPSLSWSTCKSGGSCTTNSGAITLDANWRWVHGVNTSTNCYTGNTWNTAICDTDASCAQDCALDGADYSGTYGITTSGNSLRLNFVTGSNVGSRTYLMADNTHYQIFDLLNQEFTFTVDVSHLPCGLNGALYFVTMDADGGVSKYPNNKAGAQYGVGYCDSQCPRDLKFIAGQANVEGWTPSSNNANTGLGNHGACCAELDIWEANSISEALTPHPCDTPGLSVCTTDACGGTYSSDQYAGTCDPDGCDFNPYRLGVTDFYGSGKTVDTTKPITVVTQFVTDDGTSTGTLSEIRRYYVQNGVVIPQPSSKISGVSGNVINSDFCDAEISTFGETASFSKHGGLAKMGAGMEAGMVLVMSLWDDYSVNMLWLDSTYPTNATGTPGAARGSCPTTSGDPKTVESQSGSSYVTFSDIRVGPFNSTFSGGSSTGGSSTTTASGTTTTKASSTSTSSTSTGTGVAAHWGQCGGQGWTGPTTCASGTTCTVVNPYYSQCL
modifications: Obtained from an Environmental Sample
For B3, the “product tolerance” value [1] was “enhanced product tolerance”.

B4: BD29555: wild type CBH I polypeptide BD29555 (SEQ ID NO:1), species of origin unknown (protein)
chain: MSALNSFNMYKSALILGSLLATAGAQQIGTYTAETHPSLSWSTCKSGGSCTTNSGAITLDANWRWVHGVNTSTNCYTGNTWNTAICDTDASCAQDCALDGADYSGTYGITTSGNSLRLNFVTGSNVGSRTYLMADNTHYQIFDLLNQEFTFTVDVSHLPCGLNGALYFVTMDADGGVSKYPNNKAGAQYGVGYCDSQCPRDLKFIAGQANVEGWTPSSNNANTGLGNHGACCAELDIWEANSISEALTPHPCDTPGLSVCTTDACGGTYSSDRYAGTCDPDGCDFNPYRLGVTDFYGSGKTVDTTKPITVVTQFVTDDGTSTGTLSEIRRYYVQNGVVIPQPSSKISGVSGNVINSDFCDAEISTFGETASFSKHGGLAKMGAGMEAGMVLVMSLWDDYSVNMLWLDSTYPTNATGTPGAARGSCPTTSGDPKTVESQSGSSYVTFSDIRVGPFNSTFSGGSSTGGSSTTTASGTTTTKASSTSTSSTSTGTGVAAHWGQCGGQGWTGPTTCASGTTCTVVNPYYSQCL
modifications: Obtained from an Environmental Sample
For B4, the “Tolerance to cellobiose accumulation % Activity in Bagasse Assay (+/−BG)” value [2, 5] was 60%, the “Tolerance to cellobiose accumulation % Activity in Bagasse Assay (+/−BG)” value ([2]; T. reesei CBH I variants, activity without β-glucosidase (BG) relative to with BG) was 74% and the “Tolerance to 250 mg/L cellobiose % Activity in 4-MUL Assay (+/−Cellobiose)” value [3, 6] was 25%. The “Tolerance to 250 mg/L cellobiose % Activity in 4-MUL Assay (+/−Cellobiose)” value ([3]; T. reesei CBH I variants, activity with 250 mg/L cellobiose relative to without cellobiose) was 23%, the “IC50 of cellobiose (4-MUL assay)” value ([1]; 200 mM MES pH 6, 25° C., FIG. 1A) was 60 µg/mL and the “IC50 of cellobiose (PASC assay)” value [4] was 2200 µg/mL. The “cellobiose concentration at which inhibition starts (PASC assay)” value [4] was “around 1 g/L”.
